According to PubChem BioAssay AID624417 (National Center for Advancing Translational Sciences (NCATS), 2012):
“And” between values parts separate entries of the source, which are not always exact repeats. Identical values can stand only once. About 6,400 (1.6%) of roughly 410,000 compounds were called active. Inconclusive means that the source gave no clear call. Such entries were picked first, then a sample of the others. Calls follow the shape of the dose curve; as a rule, active = well fitted inhibition curve with a large enough effect; inconclusive = small, poorly fitted or top-dose-only effect; inactive = no such curve, though single readings can be large or run the other way. Potencies beside an inconclusive call are fits to weak or partial responses and may not hold up.

Biological target: Glucagon-like peptide 1 receptor (Homo sapiens) (UniProt P43220)
Test: qHTS of GLP-1 Receptor Inverse Agonists (Inhibition Mode); also: nearly all actives have a fitted effect of over 55% in size
Details: HEK293 GLP-1R CRE-luciferase, luminescence, 24 h, GLP-1R form is constitutively active; activity change, negative = inhibition: at 38.3 µM (top of the series) unless noted
How it was run: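 GLP-1R inverse agonism mode: basal reporter luminescence in engineered HEK293 cells measured after one day of compound exposure at 37 deg C, with a 12 min room-temperature detection step.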
% is scaled to controls: 0 for no effect and ±100 for the full control effect; potency is read from the fitted curve at half-maximal effect; tags tell the direction and shape of the fitted curve.

Chain of UniProt P43220 (P43220 whole entry, looked up): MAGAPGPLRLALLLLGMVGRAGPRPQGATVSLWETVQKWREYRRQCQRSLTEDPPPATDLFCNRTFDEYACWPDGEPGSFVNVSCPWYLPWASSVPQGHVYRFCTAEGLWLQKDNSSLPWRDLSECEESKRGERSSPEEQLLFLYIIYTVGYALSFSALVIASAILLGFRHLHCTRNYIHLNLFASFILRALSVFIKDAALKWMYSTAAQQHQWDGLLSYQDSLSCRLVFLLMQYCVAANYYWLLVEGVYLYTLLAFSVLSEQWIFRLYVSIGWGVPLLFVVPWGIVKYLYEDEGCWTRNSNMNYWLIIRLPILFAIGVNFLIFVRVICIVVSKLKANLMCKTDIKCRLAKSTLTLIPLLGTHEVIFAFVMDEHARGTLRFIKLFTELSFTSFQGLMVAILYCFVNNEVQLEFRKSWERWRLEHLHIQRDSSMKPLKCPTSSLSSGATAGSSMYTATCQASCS

Structure (SMILES)	Potency	activity change, negative = inhibition
CCN(CC(=O)NC(C)C)Cc1nc2sc3c(c2c(=O)[nH]1)CCC3	inactive	–
CC(C)[C@H](NC(=O)c1ccc(C(C)(C)C)cc1)C(=O)N1CCN(Cc2ccc3c(c2)OCO3)CC1	inconclusive: 2.82 µM [inhibitor, full curve]	–
COc1ccc(Br)cc1CN(C)CC(=O)NCCc1ccccc1	inconclusive: 11.2 µM [inhibitor, partial curve, poor fit]	–
CSc1ncccc1C(=O)OCC(=O)c1cccc(Br)c1	inconclusive: 22.4 µM [inhibitor, single point]	–
COc1ccc2c(c1)C(C)=CC(C)(C)N2S(=O)(=O)c1ccc(NC(C)=O)cc1	inconclusive: 0.794 µM [inhibitor, full curve, poor fit]	–
C=CCNC(=S)N/N=C/c1ccc(C)s1	inconclusive: 1.58 µM [inhibitor, partial curve, poor fit]	–
CCS(=O)(=O)N1CCc2cc(C(=O)NCc3ccc(Cl)cc3)ccc21	inactive	–
O=C(CSc1nnc(-c2ccncc2)o1)NC1C2CC3CC(C2)CC1C3 (centres undefined)	inactive	–
COCCNC(=O)C1CCCN(Cc2ccc(-c3ccccc3)cc2)CC1 (centres undefined)	inconclusive: 12.6 µM [inhibitor, single point]	–
CCCN1C2=NCCN2c2cc(C)c(C)cc21	inconclusive: 10 µM [inhibitor, single point]	–
CCOC(=O)c1c(C)[nH]c(C(=O)OCC(=O)c2ccccc2)c1C	inconclusive: 12.6 µM [inhibitor, single point]	–
COCCCNC(=O)c1[nH]c2ccccc2c1Sc1ccc(C)cc1	inconclusive: 28.2 µM [inhibitor, single point]	–
CN(Cc1ccc(Cl)c(Cl)c1)C(=O)c1[nH]c(C(F)(F)F)nc1-c1ccccc1	inconclusive: 10 µM [inhibitor, partial curve]	–
CC(=O)N1c2ccc(S(=O)(=O)N3CCCCC3)cc2CC1C(=O)Nc1cccc(C)c1 (centres undefined)	inconclusive: 12.6 µM [inhibitor, single point]	–
CCCc1ccc(C(=O)/C=C/N(C)C)cc1	inactive	–
CCOC(=O)C1C(C(C)=O)=C(c2ccccc2)c2ccccc2N1S(=O)(=O)C(F)(F)F (centres undefined)	inactive	–
CC(=O)Nc1ccc(S[C@@H](CCN2CC[C@H](C(C)(C)C)CCC2=O)c2ccccc2)cc1	inconclusive: 14.1 µM [inhibitor, partial curve, poor fit]	–
O=C(O)c1ccccc1C(=O)c1ccc2c(c1)N(Cc1cccc(F)c1)C(=O)CO2	inconclusive: 11.2 µM [inhibitor, partial curve, poor fit]	–
Cc1ccc(CN(Cc2ccccn2)C(=O)Nc2ccc(C)c(C)c2)cc1	inconclusive: 12.6 µM [inhibitor, single point]	–
Cc1cccc(C)c1NCc1n[nH]c(=S)n1-c1ccccc1	inactive	–

Structure (SMILES)	Potency	activity change, negative = inhibition
Clc1ccc(C[n+]2cc(-c3ccccc3)n3c2CCCCC3)c(Cl)c1	inconclusive: 3.98 µM [inhibitor, partial curve]	–
COc1cc(C2CC(=O)c3c([nH]c(C(=O)OCc4ccc(C)cc4)c3C)C2)cc(OC)c1OC (centres undefined)	inconclusive: 1.78 µM [inhibitor, full curve, poor fit]	–
COc1cc(NC(=O)c2cc(Cl)ccc2Cl)ccc1NC(=O)c1cc2ccccc2o1	inconclusive: 1.12 µM [inhibitor, full curve, poor fit]	–
Cc1[nH]nc(-c2ccc(OCc3cnn(-c4ccccc4)c3)cc2O)c1Oc1ccccc1F	inconclusive: 2.51 µM [inhibitor, full curve, poor fit]	–
CCOC(=O)CN(C(=O)CSc1nnc(CNc2ccc(F)cc2)o1)c1ccccc1	inconclusive: 10 µM [inhibitor, partial curve]	–
CCOC(=O)/C(=N\Nc1ncnc2ccccc12)c1ccc(C)cc1	inconclusive: 28.2 µM [inhibitor, single point]	–
COc1ccc(C2=Nc3ccccc3N(C(=O)c3ccc(C(F)(F)F)cc3)C2C(=O)Nc2c(C)cccc2C)cc1 (centres undefined)	inconclusive: 28.2 µM [inhibitor, single point]	–
O=C(O)c1ccccc1-c1ccccc1C(=O)Nc1ccc(OC(F)(F)F)cc1	inconclusive: 8.91 µM [inhibitor, partial curve, poor fit]	–
O=C(NCCc1csc(-c2ccc(Cl)cc2)n1)c1ccco1	inconclusive: 28.2 µM [inhibitor, single point] and inconclusive: 35.5 µM [inhibitor, partial curve, poor fit]	–
COc1ccc(S(=O)(=O)N(Cc2ccccc2)c2ccccc2C(=O)Nc2ccccc2C(=O)NCc2ccco2)cc1	inconclusive: 5.01 µM [inhibitor, full curve, poor fit]	–
CCCN(C(=O)C(=O)Nc1ccc2nc3n(c(=O)c2c1)CCCCC3)c1ccc(OCC)cc1	inconclusive: 28.2 µM [inhibitor, single point]	–
O=C(CN1CCc2ccccc21)NC(=O)NC1CCCCC1	inconclusive: 12.6 µM [inhibitor, partial curve, poor fit]	–
CCN(CC)C1Oc2cc3c(cc2C(c2cc(OC)c(OC)c(OC)c2)C1C)OCO3 (centres undefined)	inconclusive: 0.794 µM [inhibitor, full curve, poor fit]	–
c1ccc(Oc2ccc(-c3ccn[nH]3)cc2)cc1	inconclusive: 28.2 µM [inhibitor, single point]	–
O=C(CN1C(=O)NC2(CCc3ccccc32)C1=O)c1ccc(Br)s1 (centres undefined)	inconclusive: 28.2 µM [inhibitor, single point]	–
CCOc1ccc2nc(NC(=O)CSc3nc4cccnc4n3C)sc2c1	inconclusive: 14.1 µM [inhibitor, single point]	–
CCOc1ccccc1C(=O)Nc1cccc2ccc(C)nc12	–	inconclusive: -39.7% [inhibitor]
Cc1ccc(/C=N/NC(=O)c2n[nH]c3c2CCCC3)cc1	inconclusive: 0.631 µM [inhibitor, full curve, poor fit]	–
O=C(c1ccccc1)C1CN(Cc2ccccc2)CCC1(O)c1ccccc1 (centres undefined)	inactive	–
